Source: PubChem BioAssay AID493208 (National Center for Advancing Translational Sciences (NCATS), 2011)
Hit rate of the full screen: of about 44,000 compounds, about 340 (0.77%) were called active. Inconclusive results (about 5%) are left out. Calls come from the whole dose curve; as a rule, active = well fitted inhibition curve with a large enough effect; inconclusive = small, poorly fitted or top-dose-only effect; inactive = flat fitted curve, though single readings scatter. The list shows a part of the results.

assay: Acumen qHTS Assay for Inhibitors of the mTORC1 Signaling Pathway in MEF (Tsc2-/-, p53-/-) Cells: Sytravon; conditions: phospho-rpS6 immunofluorescence/PI, 24 h; series mostly up to 38.3 µM; activity change, negative = inhibition: at the top concentration;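 note: plate controls were DMSO for no effect and rapamycin for full effect; nearly all actives have a fitted effect of over 50% in size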
In short: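 Compounds act on Tsc2-/-, p53-/- fibroblasts carrying an empty vector for 24 h before fixation and dual staining for phospho-S6 and DNA (propidium iodide). Values are percentages of cells above a rapamycin-defined pS6/PI threshold.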

Activity change, negative = inhibition, inactive:
Cc1ccc(NC(=O)/C=C/c2ccco2)cc1F -11.7%
CCOc1ccc(N(C)C(=O)C2CCN(S(=O)(=O)c3c(C)noc3/C=C/c3ccc(C)cc3)CC2)cc1 3.12%
CCN(CC)c1nn2c(=O)c(C(=O)NCCc3ccccc3C)cnc2s1 -12.3%
COc1ccc(NC(=O)c2ccco2)cc1NC(=O)c1ccc(C#N)cc1F 5.46%
Cc1c(C(=O)Nc2ccc(F)c(Cl)c2)sc2nc3n(c(=O)c12)CCC3 0.836%
CCCCCSc1nnc2c(n1)[nH]c1c(C)cccc12 -5.03%
COCCn1c(SCC(=O)c2ccc(C)cc2)nc2cc(C(=O)NC3CCCC3)ccc2c1=O 7.49%
COc1ccccc1N1CCN(c2ncnc3c2cnn3-c2ccc(C)cc2)CC1 12.8%
FC(F)(F)c1cc(Nc2nc3ccccc3c3nncn23)ccc1Cl -16.4%
O=C(NCCc1ccccc1)C1CCN(c2nc3ccccc3nc2C(F)(F)F)CC1 -2.88%
CCCNC(=O)c1cnn(-c2ccc(C)c(C)c2)c1C1CCN(C(=O)OC(C)(C)C)CC1 -9.17%
CCCOc1ccc(C(=O)N2CCC(c3nc4ccccc4s3)CC2)cc1 -0.506%
CCc1ccc(/C=C(/C#N)c2nc(-c3ccc(C)cc3)cs2)cc1 8.23%
O=S(=O)(NCC(c1ccco1)N1CCN(c2ccccc2)CC1)c1cc(F)ccc1F (configuration not stated) 2.72%
Cc1cc(C)cc(N2CCn3c2nc2c3c(=O)n(Cc3c(F)cccc3Cl)c(=O)n2C)c1 8.62%
O=C(Cn1c(=O)c(CNc2ccccc2)cc2cc3c(cc21)OCCO3)Nc1ccccc1Cl -0.361%
CCc1ccc2oc(-c3ccc(C)c(NC(=O)Cc4ccccc4)c3)nc2c1 1.45%
CC(C)(C)OC(=O)N1CCC(c2c(C(=O)NCCN3CCOCC3)cnn2-c2cccc(Cl)c2)CC1 5.49%
Cn1c(=O)c2c(nc(CN3CCN(c4ccccc4F)CC3)n2Cc2ccc(F)cc2)n(C)c1=O 3.57%
O=c1c(S(=O)(=O)c2ccccc2)cn(Cc2ccccc2)c2cc(N3CCCC3)c(F)cc12 0%
Cc1nn(C)c2c1c(C(F)(F)F)cc(=O)n2Cc1ccc(Br)cc1F -6.9%
Cc1cccc(NC(=O)CSc2nc3n[nH]c(C)c3c(=N)n2-c2cccc(Cl)c2)c1 -14.3%
Cc1cc(C)cc(C(=O)NCCc2sc(-c3ccc(F)cc3)nc2C)c1 3%
CCOC(=O)C1CCN(CCC(=O)Nc2ccccc2OC)CC1 6.95%
N#Cc1ccc(NC(=O)COCc2cc(-c3ccco3)on2)cc1 2.58%
COc1ccc(OC)c(C2CC(=O)Nc3c2c(=O)[nH]c2nc4ccccc4n32)c1 (configuration not stated) 1.63%
COc1ccc(-c2c(C)c3cc(OC(=O)N4CCOCC4)ccc3oc2=O)cc1OC 3.7%
CC(CNC(=O)c1ccc(Cn2c(=O)c3cccn3c3cccnc32)cc1)c1ccccc1 (configuration not stated) -7.76%
NC(=O)Cn1c(=O)n(CCCCCC(=O)NCc2ccc3c(c2)OCO3)c(=O)c2sccc21 6.48%
CCc1cccc(NC(=O)Cn2c(=O)n3nc(-c4cccc(F)c4)nc3c3ccccc32)c1 1.54%
COc1cccc(Cn2nnc(C(=O)NCc3ccc(Cl)cc3Cl)c2N)c1 0%
CCOc1cc2[nH]c(=O)n(CCCCC(=O)N3CCN(c4ccccc4OC)CC3)c(=O)c2cc1OCC 0.686%
COc1ccc(NC(=O)c2nnn(CC(=O)Nc3ccc(C)c(C)c3)c2N)cc1OC -18.4%
Cc1ccccc1C(=O)Nc1sc2c(c1C(=O)N1CCC(C)CC1)CCC(C)C2 (configuration not stated) 0.0859%
Cc1ccccc1CS(=O)(=O)Cc1ccc(C(=O)NCCc2ccc(Cl)cc2)o1 -12.8%
CCOC(=O)C1CCCN(c2c(C(=O)c3ccccc3)cnc3ccc(F)cc23)C1 (configuration not stated) 0.154%
Cc1cn2c(=O)cc(COC(=O)c3ccc(NC(=O)c4ccccc4C)cc3)nc2s1 0%
COc1ccc2c(c1)c1c(c(=O)n(-c3ccc(OC)c(OC)c3)c(=O)n1Cc1ccc(F)cc1)n2C -2.74%
Cc1ccccc1NC(=O)COc1ccc2oc3c(c2c1)CCCC3 -27.5%
CCOC(=O)N1CCC(NC(=O)c2cnn(-c3ccc(OC)cc3)c2C2CCN(C(=O)OC(C)(C)C)CC2)CC1 7.83%
Cc1ccc(Cn2c(=O)c3cccnc3n(Cc3ccc(C)cc3)c2=O)cc1 -6.74%
O=C(CN1C(=O)COc2ccc(S(=O)(=O)N3CCCCCC3)cc21)N1CCN(c2ccc(F)cc2)CC1 2.33%
COc1ccc(-c2cc3nc(C)c(CCC(=O)NCCc4ccc(Cl)cc4)c(C)n3n2)c(OC)c1 -12.5%
Cc1ccc(Cn2c(=O)n(-c3cccc(C(F)(F)F)c3)c(=O)c3c(C)c(C)sc32)c(C)c1 -13.3%
Cc1ccc(CSc2ncc(Cl)c(C(=O)Oc3ccccc3F)n2)cc1 4.18%
Cc1cn(C)c(CC(=O)Nc2cccc(C#N)c2)c1C(=O)O -3.23%
Cc1ccccc1OCCn1cc(C(=O)c2ccco2)c2ccccc21 4.3%
Cc1ccc(-c2nn3c(=O)cc(CN4CCN(C(=O)Nc5cccc(C(F)(F)F)c5)CC4)nc3s2)cc1 5.34%
Clc1ccc(-c2noc3ncnc(NC4CCCCC4)c23)cc1 -0.233%
Cc1ccc(CCNC(=O)c2cnc3c(-c4ccc(F)cc4)c(C)nn3c2C)cc1 0.517%
O=C(CCn1c(=O)c2ccccc2n(Cc2cccc(F)c2)c1=O)NCc1ccc2c(c1)OCO2 6.26%
Cc1cc(C)cc(N2C(=O)N(Cc3cc(=O)n4ccccc4n3)c3ccccc3S2(=O)=O)c1 -5.8%
CCc1nn(CC(=O)NCc2ccc(C)cc2)c(=O)c2cc3occc3n12 0.877%
COc1ccc(N2CCN(c3nc4ccc(C(=O)c5ccccc5)cc4n4cnnc34)CC2)cc1 -3.11%
COc1ccc(NC(=O)Cc2c(C(=O)O)[nH]c3ccccc23)cc1OC 0.234%
COc1ccc(CNC(=O)Cc2coc3ccc(C)cc23)cc1 -7.6%
Cc1ccc(NC(=O)c2oc3ccc(S(=O)(=O)N4CCOCC4)cc3c2C)c(C)c1 -1.39%
COc1cc(C2c3c(oc4ccc(F)cc4c3=O)C(=O)N2Cc2ccc3c(c2)OCO3)ccc1O (configuration not stated) 0.735%
CCCCN(CC)C(=O)c1c[nH]c2ccc(S(=O)(=O)N(C)c3ccc(Cl)cc3)cc2c1=O 6.44%
COC(=O)c1cccnc1-n1c(=O)c2cccnc2n(CC(=O)Nc2cccc(C)c2)c1=O 0%
CC(C)Oc1ccc(CNC(=O)c2ccc3c(c2)nc2n3CCOC2)cc1 -9.31%
COc1cc(NC(=O)N2CCSc3ccccc32)cc(OC)c1OC 5.72%
CCN(c1ccccc1C)S(=O)(=O)c1nnc(NC(=O)c2ccccc2C)s1 4.11%
CCCc1nnc(NC(=O)Nc2ccccc2Cl)s1 5.79%
Cc1nc2nc(C)c(NS(=O)(=O)c3ccc(CC(C)C)cc3)c(=O)n2[nH]1 -1.26%
CCOc1ccc(OCC)c(NC(=O)C2CCCN(S(=O)(=O)c3cc(Br)cc4c3N(C(=O)CC)CC4)C2)c1 (configuration not stated) 0.459%
Cc1nn(C(=O)c2c(F)cccc2F)c(C)c1S(=O)(=O)N1CCCCCC1 -4.67%
CCn1c(CN2CCOCC2)nc2cc(NC(=O)c3cccc([N+](=O)[O-])c3)ccc21 -5.13%
Cn1c(=O)c2c(-c3ccccc3)n(CCCO)cc2n(C)c1=O -10.5%
COc1ccc(NC(=O)Cn2cc(C(=O)c3ccccc3OC)c(=O)c3ccc(C)nc32)cc1OC -3.7%
CC(=O)Nc1nnc2n1CCS2 -1.36%
COc1ccc(C)cc1NC(=O)c1nnn(-c2c(C)cccc2C)c1C 0.573%
Cc1ccc(C)c(NC(=O)/C(C#N)=C/c2ccc(C(C)C)cc2)c1 -12.7%
CCOC(=O)c1ccc(N2CCN(c3cc(C)ccc3C)CC2)c(NC(=O)Nc2ccc(Cl)cc2)c1 14.3%
CC(C)N(C(=O)Cn1cc(SCC(=O)Nc2ccccc2C(F)(F)F)c2ccccc21)C(C)C 2.99%
CCOc1ccc(C2C(C(=O)Nc3ccccc3C)=C(C)Nc3nnnn32)cc1 (configuration not stated) -2.43%
Cn1c(=O)c2c(c3ccccc31)OC(=O)CC2c1cccc(Cl)c1 (configuration not stated) -8.82%
COc1ccccc1/C=C/c1nc(C#N)c(NCC(C)C)o1 -0.281%
COc1cc(NC(=O)CN2Cc3ccccc3C2=O)cc(OC)c1OC -4.01%
Cc1ccc(-c2nc(CCNC(=O)C(=O)Nc3c(C)cccc3C)cs2)cc1 -20.3%
CCOCCn1cnc2sc(C(=O)Nc3ccccc3C(=O)OC)c(C)c2c1=O -1.11%
O=C(Cn1ccc2cc(S(=O)(=O)N3CCCCC3)ccc21)NCc1ccccc1Cl -1.05%
CCOc1cccc(CC(=O)N2CCc3c([nH]c4ccccc34)C2c2ccc(SC)cc2)c1OCC (configuration not stated) -0.582%
COc1ccc(N2C(=O)CSC23C(=O)N(Cc2ccc(C)cc2)c2ccccc23)cc1Cl (configuration not stated) -7.1%
CCOc1ccc(NC(=O)Cn2nc(Cc3ccncc3)c3ccccc3c2=O)cc1 -11.6%
CCCN(CCC)C(=O)c1nn(C)c2c1CSc1ccc(C)cc1-2 0%
CC(C)Cn1c(=O)c2ccccc2n2c(CCC(=O)Nc3ccc(F)cc3)nnc12 -3.79%
CCOC(=O)c1cc(-c2ccccc2)n(CCCC(=O)Nc2ccccc2C)c1C -2.59%
COc1ccc(-n2ccnc(NCc3ccccc3Cl)c2=O)cc1OC 5.61%
COc1ccc(C(=O)c2oc3ccccc3c2NC(=O)c2cccc(OC)c2)cc1 1.89%
Cc1nc(-c2ccc(S(=O)(=O)Nc3ccc(Cl)c(C(F)(F)F)c3)cc2)co1 -12%
COc1ccc(CNC(=O)c2sc3nc4n(c(=O)c3c2C)CCCCC4)cc1 3.34%
Clc1cccc(C2=NC(c3cccs3)=Nc3ccc(Br)cc3N2)c1 -5.55%
CCN(CC)CCOC(=O)c1ccc(Nc2c3c(nc4ccccc24)CCC3)cc1 -10.3%
COc1ccc(CNC(=O)C(CC(C)C)N2Cc3ccccc3C2=O)cc1 (configuration not stated) -2.77%
CC(C)CN(CCNC(=O)c1cc(-c2cccs2)nc2ccccc12)CC(C)C 2.64%
CCOc1ccccc1CNC(=O)c1cnc2sc(N(CC)CC)nn2c1=O -0.921%
